Some of the results follow. These are further read-outs of the screen, such as a control signal, another cell line or another target. No call is given for them.
Legend:
Experiment in all cases: Primary Screen for Target Class Profiling of Small Molecule Inhibitors of Methyltransferases
[1] = molecular target: Glycine N-methyltransferase (Homo sapiens) (UniProt Q14749); details: purified enzyme, MTase-Glo SAH luminescence; measured here: GNMT inhibition; at 40 µM; stronger effect = lower value
Procedure, shortened: (§1)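 Each enzyme was reacted with SAM and its substrate, with compounds tested once at 40 uM; SAH formed was read by MTase-Glo luminescence.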

[2] = molecular target: Guanidinoacetate N-methyltransferase (Homo sapiens) (UniProt Q14353); details: purified enzyme, MTase-Glo SAH luminescence; measured here: GAMT inhibition; at 40 µM; stronger effect = lower value
Procedure, shortened: as §1

[3] = molecular target: Histamine N-methyltransferase (Homo sapiens) (UniProt P50135); details: purified enzyme, MTase-Glo SAH luminescence; measured here: HNMT inhibition; at 40 µM; stronger effect = lower value
Procedure, shortened: as §1

[4] = molecular target: Nicotinamide N-methyltransferase (Homo sapiens) (UniProt P40261); details: purified enzyme, MTase-Glo SAH luminescence; measured here: NNMT inhibition; at 40 µM; stronger effect = lower value
Procedure, shortened: as §1

[5] = molecular target: Phenylethanolamine N-methyltransferase (Homo sapiens) (UniProt P11086); details: purified enzyme, MTase-Glo SAH luminescence; measured here: PNMT inhibition; at 40 µM; stronger effect = lower value
Procedure, shortened: as §1
% is set by controls: 0 for no effect and ±100 for the full control effect.

Row | SMILES | activity change, negative = inhibition [1] [%] | activity change, negative = inhibition [2] [%] | activity change, negative = inhibition [3] [%] | activity change, negative = inhibition [4] [%] | activity change, negative = inhibition [5] [%]
1 | Fc1ccc2[nH]ccc2c1-c1nc(N2CCOCC2)c2sc(CN3CCN(CC4CC4)CC3)cc2n1 | -1.66 | 4.53 | -49 | -68.8 | -9.28
2 | CN(C)c1ccc(CNC(=O)Cn2c(=O)oc3cc(S(=O)(=O)NC4CCCC4)ccc32)cc1 | 2.17 | 1.74 | 10.2 | 11.8 | 0.385
3 | C=CCS(=O)(=O)N1CCC2(CCCN(CCCc3ccccc3)C2=O)C1 (stereo not given) | -4.4 | -12.3 | -4.19 | -17.9 | -10.9
4 | Cc1ccc(N(C)S(=O)(=O)c2ccc3c(c2)n(C)c(=O)n3C)cc1 | -6.01 | 0 | -5.03 | -34.3 | -5.01
5 | CC(C)(NS(=O)(=O)c1ccc(Oc2ccc(F)cc2)cc1)C(=O)NO | -5.58 | 3.94 | 1.19 | -8.04 | 2.95
6 | CC(CN1c2ccccc2Sc2ccccc21)N(C)C (stereo not given) | -2.37 | 13.1 | -10.1 | -4.49 | 4.79
7 | CC1CCC(NS(=O)(=O)c2ccc3c(c2)n(C)c(=O)n3C)CC1 (stereo not given) | 14.6 | 0 | 8.87 | 1 | 5.54
8 | COC[C@H]1CCCN1[C@@H]1[C@H](O)[C@H](CO)O[C@@H]1CNCc1ccc(F)cc1 | -8.78 | -6.41 | -4.52 | -9 | -0.697
9 | CNC(=O)c1ccccc1Sc1ccc2c(/C=C/c3ccccn3)n[nH]c2c1 | -26.9 | -8.15 | -6.55 | -27.1 | -15
10 | Cc1ccc(NC(=O)Nc2cc(C(F)(F)F)ccc2F)cc1Nc1ccc2c(c1)NC(=O)/C2=C\c1ccc[nH]1 | -17.5 | -28.7 | -14.8 | -29.6 | -15.4
11 | CN(C)[C@@H]1CCc2[nH]c3ccc(NC(=O)c4ccc(F)cc4)cc3c2C1 | 1.67 | -0.609 | -55.3 | -13 | -7.74
12 | Cc1ccc(Cn2c(=O)c3ccccc3n3c(SCC(=O)Nc4cccc(Cl)c4)nnc23)cc1 | 2.66 | 4.92 | 8.59 | 0.941 | 4.83
13 | CC1CC(C)CN(S(=O)(=O)c2ccc3c(c2)oc(=O)n3CC(=O)NCc2cccs2)C1 (stereo not given) | -10.7 | -2.48 | -7.49 | -8.74 | -11.8
14 | Cc1nc(N(C)C2CCCCC2)ncc1C(C)NC(=O)C1(CO)CC1 (stereo not given) | -4.05 | -6.09 | -3.54 | -7.17 | -4.77
15 | CNC(=O)[C@@H]1CN(Cc2ccncc2)C[C@H]1COC | -0.465 | 1.56 | 0.938 | 0.686 | -0.554
16 | Fc1ccc(C2Nc3ccc(Cl)cc3C3C=CCC32)cc1 (stereo not given) | -10.8 | -2.69 | -10.1 | -13.1 | -12.3
17 | O=C1CCCN1c1ccc(CN2CC(=O)N(Cc3ccccc3)c3ccccc3S2(=O)=O)cc1 | -10.4 | 3.27 | 9.2 | 2.79 | -0.185

From PubChem BioAssay AID1745853 (National Center for Advancing Translational Sciences (NCATS), 2022)
